In PubChem BioAssay AID2100 (National Center for Advancing Translational Sciences (NCATS), 2009):
Among all 300,000 compounds or so, about 1,200 (0.4%) were called active. This list was built around the results that the source calls inconclusive (neither active nor inactive); the mix of calls is not that of the screen. Calls come from the whole dose curve; as a rule, active = well fitted inhibition curve with a large enough effect; inconclusive = small, poorly fitted or top-dose-only effect, or another doubt; inactive = no such curve, though single readings can be large or run the other way. A potency beside an inconclusive call is a rough fit, not a confirmed value.

What follows are compounds tested against Lysosomal alpha-glucosidase (Homo sapiens) (UniProt P10253) (assay: qHTS Assay for Inhibitors and Activators of Human alpha-Glucosidase Cleavage of Glycogen). Conditions: recombinant GAA, glycogen substrate, Amplex Red glucose oxidase fluorescence; activity change, negative = inhibition: at 76.4 µM (top of the series) unless noted.
Outline: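 Natural-substrate format: glycogen cleavage by 4 nM human enzyme, glucose read by Amplex Red coupling (Ex 573, Em 610 nm). Normalized to enzyme and no-enzyme controls.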
Potency is the fitted concentration of half-maximal effect.
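Throughout, for activity change, negative = inhibition: 0% = full enzyme reaction and -100% = no-enzyme basal signal.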

**Q.** For COc1ccc(OC)c(CNc2ncc(-c3cccc([N+](=O)[O-])c3)n2C)c1, which Potency is on record?
**A.** inconclusive: 25.1 µM [inhibitor, partial curve]

**Q.** O=S(=O)(c1ccc(F)cc1)c1nc(-c2ccco2)oc1Nc1ccc(F)cc1 was tested. Which Potency did it give?
**A.** inconclusive: 22.4 µM [inhibitor, partial curve]

**Q.** With CCc1c(-c2n[nH]c(=S)n2Cc2ccccc2)csc1C as the compound, how does the Potency read?
**A.** inconclusive: 28.2 µM [inhibitor, partial curve]

**Q.** How did the Potency turn out when O=C(NCc1ccccc1Cl)c1ccc(CS(=O)(=O)c2ccc(Br)cc2)o1 was run?
**A.** active: 44.7 µM

**Q.** With Cc1cc(NC(=O)CSc2ncn(-c3ccccc3)n2)no1 as the compound, how does the Potency read?
**A.** inactive

**Q.** Which Potency does the source give for Cc1ccc(C(=O)NNc2nc3ccccc3nc2C(F)(F)F)cc1 here?
**A.** active: 15.8 µM

**Q.** COc1ccc(N2CCN(C(=O)C3CCN(S(=O)(=O)N4CCOCC4)CC3)CC2)cc1 was tested. Which Potency did it give?
**A.** inconclusive: 3.55 µM [inhibitor, single point]

**Q.** Which Potency does the source give for CCCCn1c(SCC(=O)NCc2ccco2)nc2ccc(N3CCOCC3)cc2c1=O here?
**A.** inactive

**Q.** Which Potency does the source give for CC1(C)CC(=O)C2=C(C1)Nc1cc(Cl)ccc1S2 here?
**A.** inconclusive: 7.94 µM [inhibitor, full curve, poor fit]

**Q.** How did the Potency turn out when O=C(N/N=C/c1ccncc1)c1cccc(N/N=C/c2ccncc2)c1 was run?
**A.** inactive

**Q.** For S=C(NCc1ccccn1)Nc1ccc(Br)cc1Cl, which Potency is on record?
**A.** inconclusive: 56.2 µM [inhibitor, partial curve]

**Q.** How did the Potency turn out when CCCN1C=CC(=C/C=C(\C#N)C(=O)OCC)C=C1 was run?
**A.** inconclusive: 11.1 µM [inhibitor, partial curve]

**Q.** Cc1ccc(NCc2nc3ccccc3n2C)cc1C was tested. Which Potency did it give?
**A.** inconclusive: 20 µM [inhibitor, single point]

**Q.** How did the Potency turn out when CC1=NNC(=O)C1Oc1ccccc1 (stereo not drawn) was run?
**A.** inconclusive: 28.2 µM [inhibitor, single point]

**Q.** With COc1ccccc1C(=O)NNS(=O)(=O)c1ccc(F)cc1 as the compound, how does the Potency read?
**A.** inconclusive: 39.8 µM [inhibitor, partial curve]

**Q.** Which Potency does the source give for CCOc1cccc(/C=N/N2C(=O)CSC2=S)c1O here?
**A.** inconclusive: 11.2 µM [inhibitor, partial curve]

**Q.** CC(C)NC(=S)NNc1nc2ccccc2s1 was tested. Which Potency did it give?
**A.** inconclusive: 11.1 µM [inhibitor, partial curve]

**Q.** With Cc1ccc(Cl)cc1-n1c(=O)c2sc3ccccc3c2n(CC(=O)NC2CCCCC2)c1=O as the compound, how does the Potency read?
**A.** inactive

**Q.** Cc1ccc(C(=O)C(OC(=O)c2c(C)cc(=O)oc2C)c2ccccc2)cc1 (stereo not drawn) was tested. Which Potency did it give?
**A.** inactive

**Q.** How did the Potency turn out when Cc1ccc(CNc2oc(-c3ccco3)nc2C#N)cc1 was run?
**A.** inconclusive: 25.1 µM [inhibitor, partial curve]

**Q.** How did the Potency turn out when CCCCNC(=O)NC1(C(F)(F)F)Oc2ccccc2O1 was run?
**A.** inconclusive: 28 µM [inhibitor, single point]

**Q.** How did the Potency turn out when CCOC(=O)c1cnc2c(C)cc(C)cc2c1Nc1cccc(C(=O)O)c1 was run?
**A.** inactive

**Q.** For Oc1ccc(Nc2nc3ccccc3n3cnnc23)cc1, which Potency is on record?
**A.** inconclusive: 6.31 µM [inhibitor, full curve]

**Q.** How did the Potency turn out when Cc1ccc(NNC(=O)c2cccs2)cc1Cl was run?
**A.** active: 14.1 µM

**Q.** Which Potency does the source give for O=C(NCc1ccc(F)cc1)c1cnc2n(c1=O)CCS2 here?
**A.** inconclusive: 100 µM [inhibitor, partial curve, poor fit]

**Q.** With COc1cc(O)sc1C=Nc1ccc(Cl)cc1 as the compound, how does the Potency read?
**A.** inconclusive: 44.7 µM [inhibitor, single point]

**Q.** With C=CCNC(=S)N/N=C(\C)c1cc(OC)c(OC)c(OC)c1 as the compound, how does the Potency read?
**A.** inconclusive: 22.2 µM [inhibitor, partial curve]

**Q.** With Cc1ccc(NC(=O)CCNS(=O)(=O)c2ccc3[nH]c(=O)oc3c2)cc1N(C)C as the compound, how does the Potency read?
**A.** inconclusive: 44.7 µM [inhibitor, single point]

**Q.** Which Potency does the source give for O=c1cc(CO)oc(C(Nc2ccccn2)c2ccc(C(F)(F)F)cc2)c1O (stereo not drawn) here?
**A.** inconclusive: 14 µM [inhibitor, partial curve]

**Q.** With CC(C)(C)C(=O)NC(=S)NNC(=O)c1sc2ccccc2c1Cl as the compound, how does the Potency read?
**A.** inconclusive: 25.1 µM [inhibitor, single point]

**Q.** For CNc1oc(-c2ccc(C)cc2)nc1P(=O)(c1ccccc1)c1ccccc1, which Potency is on record?
**A.** inconclusive: 22.2 µM [inhibitor, partial curve]

**Q.** How did the Potency turn out when CCCCNC(=O)CNC(=S)N(Cc1ccccc1)Cc1cccs1 was run?
**A.** inconclusive: 1.11 µM [inhibitor, full curve]

**Q.** Which Potency does the source give for CCOC(=O)c1c(N)sc2c1CCSC2 here?
**A.** inconclusive: 35.2 µM [inhibitor, partial curve]

**Q.** CCN(CC)CCNc1nc(-c2ccc(OC)cc2)c(-c2ccc(OC)cc2)s1 was tested. Which Potency did it give?
**A.** inconclusive: 25.1 µM [inhibitor, partial curve]

**Q.** How did the Potency turn out when O=C(NC1(C(F)(F)F)Oc2ccccc2O1)N1CCCC1 was run?
**A.** active: 7.88 µM

**Q.** With CCn1c(C(=O)Nc2cc(C)cc(C)c2)cc2sc(Cl)cc21 as the compound, how does the Potency read?
**A.** inactive

**Q.** For CCC(C)c1ccc(O)c(NC(=O)c2cncc(Br)c2)c1 (stereo not drawn), which Potency is on record?
**A.** inconclusive: 17.8 µM [inhibitor, partial curve]

**Q.** With CCOC(=O)CN(C)C(=O)CCc1nnc(-c2ccsc2)o1 as the compound, how does the Potency read?
**A.** inconclusive: 11.2 µM [inhibitor, partial curve]

**Q.** How did the Potency turn out when C=CCn1c(=O)c2c3c(sc2n2c(Nc4ccccc4)nnc12)CCCC3 was run?
**A.** inconclusive: 1.41 µM [inhibitor, full curve]

**Q.** How did the Potency turn out when COc1cccc(NC(=S)NNC(=O)c2c([N+](=O)[O-])c(C)nn2C)c1 was run?
**A.** active: 24.9 µM

**Q.** Which Potency does the source give for CC1(C)C(c2ccccc2)=NC(c2ccccc2)N1O (stereo not drawn) here?
**A.** inconclusive: 15.8 µM [inhibitor, partial curve]

**Q.** Which activity change, negative = inhibition does the source give for COc1ccc(S(=O)(=O)n2nc(OC(=O)c3c(-c4ccccc4Cl)noc3C)cc2N)cc1 here?
**A.** inconclusive: 14.8% [activator]

**Q.** How did the Potency turn out when COc1cc(/C=N/Nc2ccccc2[N+](=O)[O-])cc(OC)c1O was run?
**A.** inconclusive: 12.6 µM [inhibitor, partial curve]

**Q.** For CCOC(=O)C1=C(c2ccccc2)Nc2c(c(=O)n(C)c(=O)n2C)C1c1ccc(O)c(OC)c1 (stereo not drawn), which Potency is on record?
**A.** active: 31.6 µM

**Q.** How did the Potency turn out when CCn1c2ccccc2c2cc(/C=N/n3cn[nH]c3=S)ccc21 was run?
**A.** inconclusive: 28.2 µM [inhibitor, partial curve]

**Q.** Which Potency does the source give for CC(C)(C)n1nnnc1C(c1ccncc1)N1CCN(c2ccc(O)cc2)CC1 (stereo not drawn) here?
**A.** active: 17.6 µM

**Q.** How did the Potency turn out when Cc1ccc2[nH]c(=O)c(-c3nc4ccccn4c3NCc3ccco3)cc2c1 was run?
**A.** active: 31.6 µM

**Q.** With CCOC(=O)c1c(-c2ccccc2)csc1NC(=O)c1cc(-c2cccc(OC)c2)on1 as the compound, how does the Potency read?
**A.** inactive

**Q.** C=CCNC(=S)/N=c1/ccccn1Cc1ccccc1 was tested. Which Potency did it give?
**A.** inconclusive: 56.2 µM [inhibitor, partial curve]

**Q.** With COc1ccc(C(=O)NC2(C(F)(F)F)C(=O)NC(C)=C2C#N)cc1 (stereo not drawn) as the compound, how does the Potency read?
**A.** inactive

**Q.** How did the Potency turn out when CN=c1scc(C)n1/N=C/c1cc(Br)c(O)c(OC)c1 was run?
**A.** inactive

**Q.** With Cc1cccc(NC(=O)CSc2nc(-c3cccs3)cc(C(F)(F)F)c2C#N)c1 as the compound, how does the Potency read?
**A.** inactive

**Q.** For C=CCc1cccc(/C=N/c2ncccc2O)c1O, which Potency is on record?
**A.** inconclusive: 39.5 µM [inhibitor, single point]

**Q.** With CCOc1ccc2c(c1)s/c(=N\S(=O)(=O)c1ccc(OC)cc1)n2C(F)F as the compound, how does the Potency read?
**A.** inactive

**Q.** For Cc1nnc(SCCCCSc2nnc(C)c(=O)[nH]2)[nH]c1=O, which Potency is on record?
**A.** inconclusive: 12.6 µM [inhibitor, partial curve]

**Q.** For CSc1nc2oc3c(c2c2nncn12)CC(C)(C)SC3, which Potency is on record?
**A.** inactive

**Q.** With COc1cc(Br)cc(CN2CCN(C/C=C/c3ccccc3)CC2)c1O as the compound, how does the Potency read?
**A.** inconclusive: 31.6 µM [inhibitor, partial curve]

**Q.** With COc1cccc(N(C(=O)c2ccco2)C(C(=O)NC2CCCC2)c2cccnc2)c1 (stereo not drawn) as the compound, how does the activity change, negative = inhibition read?
**A.** inconclusive: 34.6% [activator]

**Q.** For O=c1cc(-c2ccccc2Cl)oc2cc(O)cc(O)c12, which Potency is on record?
**A.** inactive

**Q.** For COc1ccccc1NC(=S)N(CCCN1CCOCC1)Cc1cn(C)c2ccccc12, which Potency is on record?
**A.** inactive

**Q.** CCc1cccc(C)c1Nc1c(-c2ccc(N(C)C)cc2)nc2ncccn12 was tested. Which Potency did it give?
**A.** inconclusive: 25.1 µM [inhibitor, partial curve]

**Q.** CC1CCC(NC(=O)C2(C)Cc3ccccc3C(=O)N2Cc2ccccc2Cl)CC1 (stereo not drawn) was tested. Which Potency did it give?
**A.** inactive

**Q.** For CC(C)N1CCc2c(sc(N)c2C#N)C1, which Potency is on record?
**A.** inconclusive: 15.8 µM [activator, partial curve]

**Q.** With O=C(NO)c1ccccc1C(F)(F)F as the compound, how does the Potency read?
**A.** inconclusive: 50.1 µM [inhibitor, single point]

**Q.** Which Potency does the source give for NC(=O)c1c(/N=C/c2cccs2)sc2c1CCCC2 here?
**A.** inconclusive: 20 µM [inhibitor, partial curve]

**Q.** For NC(=O)c1c(NC(=S)Nc2ccc(F)cc2)sc2c1CCCC2, which Potency is on record?
**A.** inconclusive: 6.26 µM [inhibitor, full curve]

**Q.** COc1cc(N=Nc2c(C)n(C)n(-c3ccccc3)c2=O)ccc1N was tested. Which Potency did it give?
**A.** inconclusive: 39.8 µM [inhibitor, single point]

**Q.** For CCOc1cc(/C=C2\CN(CC)C/C(=C\c3ccc(O)c(OCC)c3)C2=O)ccc1O, which Potency is on record?
**A.** inconclusive: 50.1 µM [inhibitor, single point]

**Q.** For COc1ccc(NC2=C(C(C)=O)C(c3ccc(OC)c(OC)c3)C(C(C)=O)C(C)(O)C2)cc1 (stereo not drawn), which Potency is on record?
**A.** inconclusive: 39.5 µM [inhibitor, single point]

**Q.** Which Potency does the source give for COc1ccc2c(c1)-c1nc(NC(=O)c3cc(OC)c(OC)c(OC)c3)sc1CC2 here?
**A.** inactive

**Q.** With Cn1c(C(=O)NN)cc2cc(Oc3ccccc3)ccc21 as the compound, how does the Potency read?
**A.** inconclusive: 44.7 µM [inhibitor, single point]

**Q.** Cc1cn2c(=O)cc(COc3ccc(NC(=O)COc4ccccc4)cc3)nc2s1 was tested. Which Potency did it give?
**A.** inconclusive: 2 µM [inhibitor, full curve]

**Q.** With COc1cc(NC(=O)CN(c2cc(C)cc(C)c2)S(=O)(=O)c2c(C)[nH]c(=O)[nH]c2=O)cc(OC)c1 as the compound, how does the Potency read?
**A.** inactive
